From patent US20250019440A1 (Zymeworks, published 2025)
Like-named read-outs stand apart in the source and are kept apart here.

How the values were obtained:
Human PD-L2 = biological target: T1, Human PD-L2 (human, UniProt Q9BQ51 20-219); assay: SPR, PD-L2 amine-coupled, variant as analyte, 1:1 model
T1 construct: Amine-coupled to a CM5 chip for SPR; also called recombinant PD-L2
T1 sequence (looked up): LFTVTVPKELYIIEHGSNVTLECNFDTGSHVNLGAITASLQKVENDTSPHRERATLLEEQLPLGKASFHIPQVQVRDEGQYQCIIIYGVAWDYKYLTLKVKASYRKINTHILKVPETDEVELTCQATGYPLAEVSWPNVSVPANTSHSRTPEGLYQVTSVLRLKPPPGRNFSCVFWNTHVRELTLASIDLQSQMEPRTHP

Human PD-L1 [1] = biological target: T2, Human PD-L1 (human, UniProt Q9NZQ7 part only); assay: SPR, PD-L1 amine-coupled, variant as analyte, 1:1 model
T2 construct: Amine-coupled to a CM5 chip for SPR; also called recombinant human PD-L1

PD-L1 on cells = PD-L1 on cells (UniProt Q9NZQ7); assay: cell-based or functional assay
Human mesothelin = biological target: T3, Human mesothelin (human, UniProt Q13421 296-580, limits assumed); assay: SPR, mesothelin amine-coupled; apparent KD, variant binds mesothelin bivalently but was fit 1:1
T3 construct: Amine-coupled to a CM5 chip for SPR; also called MSLN; recombinant human mesothelin

Human CD3 (recombinant) [2] = biological target: Human CD3 (recombinant) (human); assay: SPR, CD3 amine-coupled, variant as analyte, 1:1 model
Human PD-L1 [3] = biological target: T2, Human PD-L1; assay: SPR, PD-L1 amine-coupled, variant as analyte, 1:1 model; remark: listed apart in the source
Human CD3 (recombinant) [4] = biological target: Human CD3 (recombinant) (human); assay: SPR, CD3 amine-coupled, variant as analyte, 1:1 model; remark: listed apart in the source
Cynomolgus monkey PD-L1 = biological target: T4, Cynomolgus monkey PD-L1 (cynomolgus monkey, UniProt G7PSE7 19-239); assay: SPR, PD-L1 amine-coupled, variant as analyte, 1:1 model
T4 construct: Amine-coupled to a CM5 chip for SPR; also called recombinant cynomolgus monkey PD-L1

Mouse PD-L1 = biological target: T5, Mouse PD-L1 (mouse, UniProt Q9EP73 part only, limits assumed); assay: as above
T5 construct: Amine-coupled to a CM5 chip for SPR; also called recombinant mouse PD-L1

Human PD-L1 [5] = biological target: T2, Human PD-L1; assay: as above; remark: listed apart in the source

T2 sequence (Q9NZQ7 19-239 limits assumed): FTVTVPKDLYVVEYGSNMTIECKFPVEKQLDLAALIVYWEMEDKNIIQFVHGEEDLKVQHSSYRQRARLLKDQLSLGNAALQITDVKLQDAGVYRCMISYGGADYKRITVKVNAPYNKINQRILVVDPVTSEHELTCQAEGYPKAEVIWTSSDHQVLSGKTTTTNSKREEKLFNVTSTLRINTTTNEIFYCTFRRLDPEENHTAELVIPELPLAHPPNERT
Sequence of PD-L1 on cells (Q9NZQ7 19-290 limits assumed): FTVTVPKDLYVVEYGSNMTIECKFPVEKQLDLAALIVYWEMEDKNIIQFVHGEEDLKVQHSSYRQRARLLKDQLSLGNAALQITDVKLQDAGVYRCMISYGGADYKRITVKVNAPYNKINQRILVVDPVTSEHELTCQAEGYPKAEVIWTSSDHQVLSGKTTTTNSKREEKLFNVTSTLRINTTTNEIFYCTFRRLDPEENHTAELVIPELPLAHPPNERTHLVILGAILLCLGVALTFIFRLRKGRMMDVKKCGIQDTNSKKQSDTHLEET
Sequence of Human CD3 (recombinant) (chain, as listed by the source): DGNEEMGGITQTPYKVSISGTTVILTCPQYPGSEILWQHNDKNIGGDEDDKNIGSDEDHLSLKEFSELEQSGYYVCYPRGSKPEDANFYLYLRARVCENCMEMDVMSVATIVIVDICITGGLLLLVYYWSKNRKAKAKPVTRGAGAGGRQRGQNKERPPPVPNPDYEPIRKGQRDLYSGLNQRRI
Sequence of Mouse PD-L1 (Q9EP73 19-238 limits assumed): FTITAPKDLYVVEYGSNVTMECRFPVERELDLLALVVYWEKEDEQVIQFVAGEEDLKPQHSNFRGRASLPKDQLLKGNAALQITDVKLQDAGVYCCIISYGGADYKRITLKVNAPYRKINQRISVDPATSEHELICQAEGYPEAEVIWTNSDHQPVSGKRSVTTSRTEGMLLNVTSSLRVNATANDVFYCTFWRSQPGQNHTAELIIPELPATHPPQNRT
Sequence of Human mesothelin (Q13421 other isoform, or with tags, fused parts or gaps limits assumed): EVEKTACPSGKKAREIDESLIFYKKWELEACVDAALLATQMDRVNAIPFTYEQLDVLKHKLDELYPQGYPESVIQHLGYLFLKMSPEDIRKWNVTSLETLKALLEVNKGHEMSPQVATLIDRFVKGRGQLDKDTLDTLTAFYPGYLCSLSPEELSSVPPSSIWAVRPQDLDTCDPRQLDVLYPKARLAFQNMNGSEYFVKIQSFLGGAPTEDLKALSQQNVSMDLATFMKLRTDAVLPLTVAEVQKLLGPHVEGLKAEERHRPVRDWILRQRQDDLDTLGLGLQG
Sequence of Cynomolgus monkey PD-L1 (G7PSE7 entry or part of it): as the sequence (Q9NZQ7 19-239 limits assumed) above, with A33T, A34S, S62N, R68Q, Q82R, F173L, T185A, T192I, H215L counted along it

B1: v38917 (other)
heavy 1: DIQMTQSPSSLSASVGDRVTITCSASSSVSYMHWYQQKSGKAPKLLIYDTSKLASGVPSRFSGSGSGTDFTLTISSLQPEDFATYYCQQWSGYPLTFGQGTKLEIKGGGGSGGGGSGGGGSGGGGSQVQLVQSGAEVKKPGASVKVSCKASGYSFTGYTMNWVRQAPGQGLEWMGLITPYNGASSYNQKFRGKATMTVDTSTSTVYMELSSLRSEDTAVYYCARGGYDGRGFDYWGQGTLVTVSSGGGGSGEVQLVESGGGLVQPGGSLRLSCAASGVTFNYYGMSWIRQAPGKGLEWVASITSSGGRIYYPDSVKGRFTISRENTQKTLYLQMNSLRAEDTAVYYCTLDGRDGWVAYWGQGTLVTVSSASTKGPSVFPLAPSSKSTSGGTAALGCLVKDYFPEPVTVSWNSGALTSGVHTFPAVLQSSGLYSLSSVVTVPSSSLGTQTYICNVNHKPSNTKVDKK[human IgG1 Fc with changes not shown]
light: NFMLTQPHSVSESPGKTVTISCKRNTGNIGSNYVNWYQQHEGSSPTTIIYRNDKRPDGVSDRFSGSIDRSSKSASLTISNLKTEDEADYFCQSYSSGFIFGGGTKLTVLGQPKAAPSVTLFPPSSEELQANKATLVCLISDFYPGAVTVAWKADSSPVKAGVETTTPSKQSNNKYAASSYLSLTPEQWKSHRSYSCQVTHEGSTVEKTVAPTECS
heavy 2: NPPTFSPALLVVTEGDNATFTCSFSNTSESFVLNWYRMSPSNQTDKLAAFPEDRSQPGQDARFRVTQLPNGRDFHMSVVRARRNDSGTYLCGAISLAPKLQIKESLRAELRVTEGGGGSGDIQMTQSPSSLSASVGDRVTITCSASSSVSYMHWYQQKSGKAPKLLIYDTSKLASGVPSRFSGSGSGTDFTLTISSLQPEDFATYYCQQWSGYPLTFGQGTKLEIKGGGGSGGGGSGGGGSGGGGSQVQLVQSGAEVKKPGASVKVSCKASGYSFTGYTMNWVRQAPGQGLEWMGLITPYNGASSYNQKFRGKATMTVDTSTSTVYMELSSLRSEDTAVYYCARGGYDGRGFDYWGQGTLVTVSSAAEPKSSDKTHTCPPCPAPEAAGGPSVFLFPPKPKDTLMISRTPEVTCVVVSVSHEDPEVKFNWYVDGVEVHNAKTKPREEQYNSTYRVVSVLTVLHQDWLNGKEYKCKVSNKALPAPIEKTISKAKGQPREPQVYVLPPSRDELTKNQVSLLCLVKGFYPSDIAVEWESNGQPENNYLTWPPVLDSDGSFFLYSKLTVDKSRWQQGNVFSCSVMHEALHNHYTQKSLSLSPG
Kd (Human PD-L2): 120 nM | Kd (Human PD-L1 [1]): 110 nM

B2: v39007 (other)
heavy 1: EVQLVESGGGLVQPGGSLRLSCAASGVTFNYYGMSWIRQAPGKGLEWVASITSSGGRIYYPDSVKGRFTISRENTQKTLYLQMNSLRAEDTAVYYCTLDGRDGWVAYWGQGTLVTVSSASTKGPSVFPLAPSSKSTSGGTAALGCLVKDYFPEPVTVSWNSGALTSGVHTFPAVLQSSGLYSLSSVVTVPSSSLGTQTYICNVNHKPSNTKVDKKVEPKSCDKTHTCPPCPAPEAAGGPSVFLFPPKPKDTLMISRTPEVTCVVVSVSHEDPEVKFNWYVDGVEVHNAKTKPREEQYNSTYRVVSVLTVLHQDWLNGKEYKCKVSNKALPAPIEKTISKAKGQPREPQVYVYPPSRDELTKNQVSLTCLVKGFYPSDIAVEWESNGQPENNYKTTPPVLDSDGSFALVSKLTVDKSRWQQGNVFSCSVMHEALHNHYTQKSLSLSPGGGGGSGQVQLVESGGGLVQPGGSLRLSCSVSGIDLSSNPMIWVRQAPGKGLQYIGIIDTDGSTYYADWAKGRFTISKDSTTVYLQINSPRAEDTAVYYCARRLHGSSNGYYDDLWGQGTLVTVSSGGGGSGGGGSGGGGSGGGGSDGQMTQSPSSVSASVGDRVTITCQASQSIYSYLSWYQQKPGQRPKLLIYKASTLASGVPSRFSGSGSGTDFTLTISSVQPEDFATYYCQQGYTVTNVDKNTFGGGTKVEIK
light: NFMLTQPHSVSESPGKTVTISCKRNTGNIGSNYVNWYQQHEGSSPTTIIYRNDKRPDGVSDRFSGSIDRSSKSASLTISNLKTEDEADYFCQSYSSGFIFGGGTKLTVLGQPKAAPSVTLFPPSSEELQANKATLVCLISDFYPGAVTVAWKADSSPVKAGVETTTPSKQSNNKYAASSYLSLTPEQWKSHRSYSCQVTHEGSTVEKTVAPTECSGGG[about 120 residues not shown]
heavy 2: QVQLVESGGGLVQPGGSLRLSCSVSGIDLSSNPMIWVRQAPGKGLQYIGIIDTDGSTYYADWAKGRFTISKDSTTVYLQINSPRAEDTAVYYCARRLHGSSNGYYDDLWGQGTLVTVSSGGGGSGGGGSGGGGSGGGGSDGQMTQSPSSVSASVGDRVTITCQASQSIYSYLSWYQQKPGQRPKLLIYKASTLASGVPSRFSGSGSGTDFTLTISSVQPEDFATYYCQQGYTVTNVDKNTFGGGTKVEIKAAEPKSSDKTHTCPPCPAPEAAGGPSVFLFPPKPKDTLMISRTPEVTCVVVSVSHEDPEVKFNWYVDGVEVHNAKTKPREEQYNSTYRVVSVLTVLHQDWLNGKEYKCKVSNKALPAPIEKTISKAKGQPREPQVYVLPPSRDELTKNQVSLLCLVKGFYPSDIAVEWESNGQPENNYLTWPPVLDSDGSFFLYSKLTVDKSRWQQGNVFSCSVMHEALHNHYTQKSLSLSPG
EC50 (read off the curve); hybrid PD-1/PD-L1 reporter gene assay, delta RLU, PD-1+ Jurkat T cells with SNU-620 cells, bottom right graph; composite signal of CD3 engagement and PD-1:PD-L1 blockade (PD-L1 on cells): ~0.01 nM

B3: v38452 (other)
heavy 1: DIQMTQSPSSLSASVGDRVTITCSASSSVSYMHWYQQKSGKAPKLLIYDTSKLASGVPSRFSGSGSGTDFTLTISSLQPEDFATYYCQQWSGYPLTFGQGTKLEIKGGGGSGGGGSGGGGSGGGGSQVQLVQSGAEVKKPGASVKVSCKASGYSFTGYTMNWVRQAPGQGLEWMGLITPYNGASSYNQKFRGKATMTVDTSTSTVYMELSSLRSEDTAVYYCARGGYDGRGFDYWGQGTLVTVSSGGGGSGEVQLVESGGGLVQPGGSLRLSCAASGVTFNYYGMSWIRQAPGKGLEWVASITSSGGRIYYPDSVKGRFTISRENTQKTLYLQMNSLRAEDTAVYYCTLDGRDGWVAYWGQGTLVTVSSASTKGPSVFPLAPSSKSTSGGTAALGCLVKDYFPEPVTVSWNSGALTSGVHTFPAVLQSSGLYSLSSVVTVPSSSLGTQTYICNVNHKPSNTKVDKK[human IgG1 Fc with changes not shown]
light: NFMLTQPHSVSESPGKTVTISCKRNTGNIGSNYVNWYQQHEGSSPTTIIYRNDKRPDGVSDRFSGSIDRSSKSASLTISNLKTEDEADYFCQSYSSGFIFGGGTKLTVLGQPKAAPSVTLFPPSSEELQANKATLVCLISDFYPGAVTVAWKADSSPVKAGVETTTPSKQSNNKYAASSYLSLTPEQWKSHRSYSCQVTHEGSTVEKTVAPTECSGGG[about 120 residues not shown]
heavy 2: DIQMTQSPSSLSASVGDRVTITCSASSSVSYMHWYQQKSGKAPKLLIYDTSKLASGVPSRFSGSGSGTDFTLTISSLQPEDFATYYCQQWSGYPLTFGQGTKLEIKGGGGSGGGGSGGGGSGGGGSQVQLVQSGAEVKKPGASVKVSCKASGYSFTGYTMNWVRQAPGQGLEWMGLITPYNGASSYNQKFRGKATMTVDTSTSTVYMELSSLRSEDTAVYYCARGGYDGRGFDYWGQGTLVTVSSAAEPKSSDKTHTCPPCPAPEAAGGPSVFLFPPKPKDTLMISRTPEVTCVVVSVSHEDPEVKFNWYVDGVEVHNAKTKPREEQYNSTYRVVSVLTVLHQDWLNGKEYKCKVSNKALPAPIEKTISKAKGQPREPQVYVLPPSRDELTKNQVSLLCLVKGFYPSDIAVEWESNGQPENNYLTWPPVLDSDGSFFLYSKLTVDKSRWQQGNVFSCSVMHEALHNHYTQKSLSLSPG
Kd (Human mesothelin): 0.12 nM | Kd (Human CD3 (recombinant) [2]): 38 nM | Kd (Human PD-L1 [3]): 8.8 nM

B4: v38408 (other)
heavy 1: [about 120 residues not shown]GGGSGEVQLVESGGGLVQPGGSLRLSCAASGVTFNYYGMSWIRQAPGKGLEWVASITSSGGRIYYPDSVKGRFTISRENTQKTLYLQMNSLRAEDTAVYYCTLDGRDGWVAYWGQGTLVTVSSASTKGPSVFPLAPSSKSTSGGTAALGCLVKDYFPEPVTVSWNSGALTSGVHTFPAVLQSSGLYSLSSVVTVPSSSLGTQTYICNVNHKPSNTKVDKK[human IgG1 Fc with changes not shown]
light: NFMLTQPHSVSESPGKTVTISCKRNTGNIGSNYVNWYQQHEGSSPTTIIYRNDKRPDGVSDRFSGSIDRSSKSASLTISNLKTEDEADYFCQSYSSGFIFGGGTKLTVLGQPKAAPSVTLFPPSSEELQANKATLVCLISDFYPGAVTVAWKADSSPVKAGVETTTPSKQSNNKYAASSYLSLTPEQWKSHRSYSCQVTHEGSTVEKTVAPTECS
heavy 2: QVQLVESGGGLVQPGGSLRLSCSVSGIDLSSNPMIWVRQAPGKGLQYIGIIDTDGSTYYADWAKGRFTISKDSTTVYLQINSPRAEDTAVYYCARRLHGSSNGYYDDLWGQGTLVTVSSGGGGSGGGGSGGGGSGGGGSDGQMTQSPSSVSASVGDRVTITCQASQSIYSYLSWYQQKPGQRPKLLIYKASTLASGVPSRFSGSGSGTDFTLTISSVQPEDFATYYCQQGYTVTNVDKNTFGGGTKVEIKAAEPKSSDKTHTCPPCPAPEAAGGPSVFLFPPKPKDTLMISRTPEVTCVVVSVSHEDPEVKFNWYVDGVEVHNAKTKPREEQYNSTYRVVSVLTVLHQDWLNGKEYKCKVSNKALPAPIEKTISKAKGQPREPQVYVLPPSRDELTKNQVSLLCLVKGFYPSDIAVEWESNGQPENNYLTWPPVLDSDGSFFLYSKLTVDKSRWQQGNVFSCSVMHEALHNHYTQKSLSLSPG
Kd (Human CD3 (recombinant) [4]): 84 nM | EC50 (read off the curve); hybrid PD-1/PD-L1 reporter gene assay, delta RLU, PD-1+ Jurkat T cells with SNU-620 cells, top graph; composite signal of CD3 engagement and PD-1:PD-L1 blockade (PD-L1 on cells): ~0.01 nM | Kd (Cynomolgus monkey PD-L1): 3.5 nM | Kd (Mouse PD-L1): 8.1 nM | Kd (Human PD-L1 [5]): 3.7 nM
